# Measured values taken from the RNAGym collection of RNA variant scans (doi:10.1073/pnas.2313332121).
# Variants at the floor of the assay are shown more often than the library holds them.
# B1: TPR 5TU (parent)
# chain: GGAUCUUCUCGAUCUAACAAAAAAGACAAAUCUGCCACAAAGCUUGAGAGCAUCUUCGGAUGCAGAGGCGGCAGCCUUCGGUGGCGCGAUAGCGCCAACGUUCUCAACUAUGACACGCAAAACGCGUGCUCCGUUGAAUGGAGUUUAUCAUG
# Variants of: B1
# Assay: polymerase ribozyme fitness, log enrichment relative to wild type (log ratio); higher = more active; in vitro selection for triplet polymerase activity
# Outline: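 Genotype fitness is the logarithm of its enrichment divided by wild-type enrichment, using inverse-variance-weighted averages of replicates. That logarithm is base 2. Enrichment was measured by Illumina sequencing of input and output libraries from one triplicate in vitro selection round, with frozen incubation at −7 °C, on PCR-built, transcribed mutant libraries of each subunit of a heterodimeric triplet polymerase ribozyme, retaining genotypes with ≥10 input reads and ≥1 read per output.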
row,Variant,polymerase ribozyme fitness (log ratio)
1,G71A C85U G86A C93U C114U A150G,≤ -4.2
2,G71A C87G C93A C95G,≤ -4.2
3,G71C A91C C95A C103A U111G A122C G133C G140U,≤ -4.2
4,G71C A91U C93U U104G,≤ -4.2
5,G71C C95U C132U G141A U146G,≤ -4.2
6,G71C G83U G141A A147C C149A,≤ -4.2
7,G71C G84U G100U C129A G140U,≤ -4.2
8,G71C G86A U109G,≤ -4.2
9,G71C G92U,-3.46
10,G71C U82C,-2.48
11,G71U A147C,-3.65
12,G71U C76A G80C,≤ -4.2
13,G71U C76A G83C A91G G124U,≤ -4.2
14,G71U C76A G86A A91U,≤ -4.2
15,G71U G80U G88U U102G A142U,≤ -4.2
16,G71U G83C,-2.74
17,G71U G88C A97U A138U,≤ -4.2
18,G71U G88U A142G,≤ -4.2
19,G71U G140U,≤ -4.2
20,C72A A73G A89U C114A U151G,≤ -4.2
21,C72A C85A A147G G152U,≤ -4.2
22,C72A C85A U90C A106C G152U,≤ -4.2
23,C72A G81U G83C C93U,≤ -4.2
24,C72A G83A C87G A89U A115C U134A,≤ -4.2

row,Variant,polymerase ribozyme fitness (log ratio)
1,C72A G86A C99A C149A,≤ -4.2
2,C72A G94C,≤ -4.2
3,C72A U77A G88C C93G U111G A137U U139G,≤ -4.2
4,C72G A89C C103G,≤ -4.2
5,C72G A91C,≤ -4.2
6,C72G A122G G141U,≤ -4.2
7,C72G C85A U144C,≤ -4.2
8,C72G C85G,≤ -4.2
9,C72G C96U C116U,≤ -4.2
10,C72G C132U,≤ -4.2
11,C72G G81U C87A C95U U104A,≤ -4.2
12,C72G U78A G86A C93A A98G C99U G100C C131U,≤ -4.2
13,C72U A89G A137U,≤ -4.2
14,C72U A122G,-0.726
15,C72U A147U,0.651
16,C72U C79A C108U C123G G140U,≤ -4.2
17,C72U C85A U102G G141A,≤ -4.2
18,C72U C87G U104A A115G,≤ -4.2
19,C72U C87U A89G C105A U127C A138C G140C,≤ -4.2
20,C72U G86A C95A A97G A98U U104A A122U,≤ -4.2
21,C72U G124U A142G,-2
22,C72U U77A C79G C93U A119U,≤ -4.2
23,C72U U78G G92C U127C,≤ -4.2
24,C72U U134A,-2.32

row,Variant,polymerase ribozyme fitness (log ratio)
1,A73C C99G U104A A106G,≤ -4.2
2,A73C G86U,≤ -4.2
3,A73C G92A G94U,≤ -4.2
4,A73G A89U,-0.161
5,A73G A107U,-4.1
6,A73G A142C,-1.76
7,A73G C85A,-1.22
8,A73G C85G C87G U135C U148C C149A,≤ -4.2
9,A73G C85U C96G C108G U127G G136C,≤ -4.2
10,A73G C85U U139A U146C C149G,≤ -4.2
11,A73G C87U U102A,≤ -4.2
12,A73G C93A A110C U139A,≤ -4.2
13,A73G C95U,-0.166
14,A73G C96G C105A U139A,≤ -4.2
15,A73G C96U A119U,-0.341
16,A73G C118G C132G,≤ -4.2
17,A73G G83A,-1.72
18,A73G G83U G84U,-1.48
19,A73G G86A,-2.14
20,A73G G94U G143U U144G,≤ -4.2
21,A73G G126C,0.529
22,A73G U82G A89U C93A C116G C125G G133C,≤ -4.2
23,A73U A91C U145G,≤ -4.2
24,A73U C75U C118G,≤ -4.2

row,Variant,polymerase ribozyme fitness (log ratio)
1,A73U C75U G84A C95G U102A G136C G143C,≤ -4.2
2,A73U C76A U77A G94C U104G A106G C108U,≤ -4.2
3,A73U C85G C118G G136C,≤ -4.2
4,A73U C87A C95A U130A C131U U139G,≤ -4.2
5,A73U C96G,-1.8
6,A73U C99G A106G G140A U144G A147C,≤ -4.2
7,A73U C103G,≤ -4.2
8,A73U C123U,-0.392
9,A73U G83A,-1.97
10,A73U G84A G92A A122C U134A,≤ -4.2
11,A73U G94A G152C,≤ -4.2
12,A73U G100U U104A G126C,≤ -4.2
13,A73U U90G G117U G133U,≤ -4.2
14,G74A A106C A142C,≤ -4.2
15,G74A A115G G143U,≤ -4.2
16,G74A A150U,-2.61
17,G74A C75G A91U A119G G133A G140C G143C,≤ -4.2
18,G74A C76A G86U A137G,≤ -4.2
19,G74A C85G,-3.83
20,G74A U77A,≤ -4.2
21,G74A U127A,≤ -4.2
22,G74C A150C,≤ -4.2
23,G74C C76A C87U C114U C116U,≤ -4.2
24,G74C C96U A119G U145G,≤ -4.2

row,Variant,polymerase ribozyme fitness (log ratio)
1,G74C C105U A107G,≤ -4.2
2,G74C G88A A91U,≤ -4.2
3,G74C G92A A98C U104G G141A,≤ -4.2
4,G74U C87A C95U C105U,≤ -4.2
5,G74U C93G,≤ -4.2
6,G74U G81U G88C A89G C95U G128U U148A,≤ -4.2
7,G74U G140U,≤ -4.2
8,C75A A91C,≤ -4.2
9,C75A A121U U145C,≤ -4.2
10,C75A C76U G86U A106U G126A U148C C149A,≤ -4.2
11,C75A C85G U135C G141U,≤ -4.2
12,C75A C95G C96U,≤ -4.2
13,C75A C95U,≤ -4.2
14,C75A G81U U82C C95G C118A,≤ -4.2
15,C75A G83A A98U,-4.16
16,C75A G141A,≤ -4.2
17,C75A U135C,≤ -4.2
18,C75G A122C G143A,≤ -4.2
19,C75G A142U,-3.7
20,C75G C76A G92A C103U,≤ -4.2
21,C75G C79A C87U A89G A91G,≤ -4.2
22,C75G C85G A147U,≤ -4.2
23,C75G C85G G124A,≤ -4.2
24,C75G C85U A106C A115G G141U,≤ -4.2

row,Variant,polymerase ribozyme fitness (log ratio)
1,C75G C87G,≤ -4.2
2,C75G C93A G124U,≤ -4.2
3,C75G C93G,≤ -4.2
4,C75G C93U,-3.74
5,C75G C103A,≤ -4.2
6,C75G C103A U127C,≤ -4.2
7,C75G C129U,≤ -4.2
8,C75G G81U G84C A137U U146C,≤ -4.2
9,C75G G86C C87U,≤ -4.2
10,C75G G92C C123A,≤ -4.2
11,C75G G92U C103G A122C,≤ -4.2
12,C75G G94A,-4.08
13,C75G G94C,-3.53
14,C75G U77A A91G A106U U134G,≤ -4.2
15,C75G U77G G92C U148C,≤ -4.2
16,C75G U101G C103G C123U A137C A138C,≤ -4.2
17,C75U A91C A119G G136U,≤ -4.2
18,C75U A122G G124A C149U,-1.15
19,C75U C79A,≤ -4.2
20,C75U C85U U111G A121U G152A,≤ -4.2
21,C75U C87A A142G,≤ -4.2
22,C75U C87A G88A C118G A147U,≤ -4.2
23,C75U C87A U104A A113U,≤ -4.2
24,C75U G80C A91G A97U A122G,≤ -4.2

row,Variant,polymerase ribozyme fitness (log ratio)
1,C75U G84U,-2.45
2,C75U G86C G100A G117U,≤ -4.2
3,C75U G94C G100U A107G,≤ -4.2
4,C75U U111G U146G,≤ -4.2
5,C75U U139A G140C,-4.11
6,C76A A98U,-0.0442
7,C76A C79A G86A G92A U151A,≤ -4.2
8,C76A C85A C87U A110C,≤ -4.2
9,C76A C85U G100C,≤ -4.2
10,C76A C87U C114U U151G,≤ -4.2
11,C76A C87U G92C A142G,≤ -4.2
12,C76A C93A,-3.88
13,C76A C96A A107C U109G,≤ -4.2
14,C76A C96A G128C,≤ -4.2
15,C76A C105U,-2.47
16,C76A C108G,≤ -4.2
17,C76A C118A,-0.944
18,C76A G80C G141C,≤ -4.2
19,C76A G83A,-2.85
20,C76A G83A A91U A106C C108A U130A,≤ -4.2
21,C76A G88C A89U U101C C114U,≤ -4.2
22,C76A G88C G92C A98G U102A C131G,≤ -4.2
23,C76A U82G C105A C108G,≤ -4.2
